Test system: influenza virus isolates from SARI patients [A(H1N1)pdm09, influenza B, A(H3N2)]
Type: biochemical

CCOC(=O)C1=C[C@@H](OC(CC)CC)[C@H](NC(C)=O)[C@@H](N)C1 [oseltamivir]
susceptibility of isolates from SARI cases: susceptible
